Experimental data from PubChem BioAssay AID1963576 (National Center for Advancing Translational Sciences (NCATS), 2024).
The campaign covered roughly 46,000 compounds. About 60 (0.1%) were called active. Roughly 3% stayed inconclusive and do not appear here. The call rests on the fitted dose curve; in most records, active means well fitted inhibition curve with a large enough effect; inconclusive means small, poorly fitted or top-dose-only effect; inactive means no such curve, though single readings can be large or run the other way. The list shows a part of the results.

Assay: Primary qHTS assay for Inhibitors of ovarian cancer metastasis using an organotypic tumor microenvironment (TME) model. Further: nearly all actives have a fitted effect of over 65% in size.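 On activity change, negative = inhibition: plate controls were DMSO wells for no effect and tomatine positive control wells for full effect.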
Conditions: SKOV3ip1-GFP adhesion/invasion on 3D omental model, fluorescence; series mostly up to 45.8 µM; activity change, negative = inhibition: at the top concentration
Summary of the method: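 Primary human omental fibroblast/mesothelial 3D culture pre-formed 48 h. SKOV3ip1-GFP cells added with compounds (0.36-46 umol/L), incubated 2 h RT/16 h 37 C, fixed; GFP cells quantified at 488/509 nm.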

Activity change, negative = inhibition, inactive:
COc1ccc(S(=O)(=O)NCCc2csc(-c3cccc(F)c3)n2)cc1OC 0.987%
COc1cc(OC)c(NC(=O)CC(C)S(=O)(=O)c2ccc3c(c2)NC(=O)CO3)cc1Cl (centres undefined) 2.44%
CCc1ccc2oc(-c3cccc(NC(=O)COc4ccccc4Cl)c3)nc2c1 -4.12%
CCOc1ccc2nc(N3CCCC(C(=O)Nc4ccc(CC)cc4)C3)sc2c1 (centres undefined) -8.55%
CCC(Oc1ccccc1)C(=O)Nc1cc(-c2ccccc2F)nn1-c1ccccc1 (centres undefined) 2.87%
CCN(CC)S(=O)(=O)c1ccc2c(c1)N(CC(=O)NCCc1ccccc1)C(=O)CO2 5.51%
CCCCNC(=O)CCn1nc(-c2ccc(Cl)cc2)c2ccccc2c1=O 4.21%
CCCCOc1ccc(CNC(=O)c2cnc3sc(N4CCCCCC4)nn3c2=O)cc1 24.4%
CC(=O)OCCN1C(=O)c2c(C)nc3ccc(S(=O)(=O)N4CCOCC4)cc3c2C1=O -13.6%
Cc1cccc(C(=O)n2nc(-c3cccnc3)nc2NCc2ccc(F)cc2)c1 -2.76%
Cc1ccc(NC(=O)Cn2c(=O)nc(-c3ccccc3)c3ccccc32)cc1 5.62%
CCN(CC)C(=O)c1ccc2c(c1)N(Cc1ccccc1F)C(=O)c1ccccc1S2=O (centres undefined) -8.48%
COc1cc(NC(=O)C(CC(C)C)N2Cc3ccccc3C2=O)cc(OC)c1 (centres undefined) -16.2%
CCOc1ccc(NC(=O)CSc2nc3ccsc3c(=O)n2CC)cc1 -14.5%
CCC(=O)N1CCc2cc(S(=O)(=O)NC(Cc3ccccc3)C(=O)NCc3ccccc3OC)ccc21 (centres undefined) 0.465%
Cc1cccc(NC(=O)c2ccc3[nH]c(C)cc(=O)c3c2)c1 0.451%
COc1ccc(-c2cc(C)no2)cc1S(=O)(=O)N1CCCC(C)C1 (centres undefined) -1.29%
COc1ccc(NC(=O)c2nnn(CC(=O)Nc3cccc(C)c3C)c2N)c(OC)c1 -10.4%
Cn1c(=O)n(C)c2cc(N3CCOCC3)c(NC(=O)c3ccc(C(C)(C)C)cc3)cc21 4.47%
COc1ccc2cc3cc(C(=O)N4CCN(c5cccc(C(F)(F)F)c5)CC4)sc3nc2c1 10.7%
COc1ccc(-c2nc3sc(CCNC(=O)C(=O)Nc4cc(F)ccc4F)c(C)n3n2)cc1 0.733%
COc1ccccc1CNc1nc2ccccc2c2nc(-c3cccc(C)c3)nn12 2.11%
Cc1cccc(CCNC(=O)c2cc3c(=O)[nH]c4ccc(C)cc4c3s2)c1 2.87%
Cc1cccc(NC(=O)CN(C)S(=O)(=O)c2ccc3c(c2)CCC(=O)N3)c1C 0.473%
CCCCOc1ccccc1Cn1c(=O)sc2ccccc21 -17.3%
Cc1c(C(=O)Nc2ccc(F)cc2)oc2ccc(S(=O)(=O)N3CCCCCC3)cc12 -15.6%
Cc1cccc(Nc2cc(C)nc(-n3nc(C)cc3C)n2)c1 6.58%
CCOc1ccc(CN2C(=O)C(=O)c3cccc(C)c32)cc1OC -5.06%
Cc1cccc(C(=O)N2c3ncnn3C3(CCCCC3)[C@@H]3CCCC[C@@H]32)c1 1.95%
CSc1ccc(CNC(=O)c2sc3ncnc(N(C)C4CCCCC4)c3c2C)cc1 -17.6%
Cc1ccc(Nc2nc3ccccc3nc2-n2nc(C)cc2C)c(Cl)c1 -10.1%
COC(=O)c1ccc2c(=O)n(CCc3ccc(S(N)(=O)=O)cc3)c(SCC(=O)C(C)(C)C)nc2c1 -0.7%
Cc1ccc(N2CCN(Cc3nnc(-c4ccccc4F)o3)CC2)c(C)c1 0.0273%
Cc1ccc(S(=O)(=O)CC(=O)Nc2nc3c(C)cccc3s2)cc1 -3.56%
Cc1ccc(-c2c3c(=O)n(C)c(=O)n(C)c3c3cnc4ccccc4n23)cc1 4.09%
COc1ccc(-c2[nH]c3c(c2-c2c(-n4cccc4)n(C)c(=O)[nH]c2=O)c(=O)[nH]c(=O)n3C)cc1F -3.68%
COc1ccc(-n2nnc(-c3nsc(NC(=O)c4cccc(C)c4)n3)c2C)cc1OC -17.1%
COc1ccccc1Nc1nc(N)nc(N)c1S(=O)(=O)c1ccccc1 5.97%
O=C(Nc1ccc(Cl)c(C(F)(F)F)c1)c1nc2ccccc2nc1N1CCCCC1 6.89%
Fc1ccc(C(NCCc2ccc(Cl)cc2)c2nnc(-c3ccccc3Cl)o2)cc1 (centres undefined) 2.37%
CCOc1ccc(NC(=O)CCc2c(C)nc3nc(-c4cc(OC)cc(OC)c4)nn3c2C)cc1 2.5%
COC(=O)c1ccccc1NC(=O)c1nn(C)c2c1COc1ccccc1-2 -29.1%
CCN1CCN(c2ncc3c(n2)CCN(Cc2cccc(F)c2F)C3)CC1 12.1%
CSc1ncc(Cl)c(C(=O)N(C)c2ccccc2)n1 4.6%
Cn1c(SCC(=O)Nc2nc3ccccc3s2)ncc(C(=O)Nc2ccc(Cl)cc2)c1=O -1.33%
Nc1nc(NCCNc2ncc(-n3ccnc3)c(-c3ccc(Cl)cc3Cl)n2)ccc1[N+](=O)[O-] -7.11%
COc1cccc(NC(=O)Cn2nnc(C(=O)NCc3ccc4c(c3)OCO4)c2N)c1 -20.8%
CCOCCCNC(=O)c1cn(CC(C)C)c(=O)c2c1c1ccccc1n2C 1.97%
COc1ccccc1Nc1ncc2c(n1)CCN(Cc1cc(F)cc(F)c1)C2 -8.67%
CN(C)c1cc(NC(=O)CNC(C)(C)C)c(O)c2c1C[C@@H]1C[C@H]3[C@H](N(C)C)C(=O)C(C(N)=O)=C(O)[C@@]3(O)C(=O)C1=C2O -0.22%
Cc1cc(C)c(NC(=O)CSc2nc(=O)n(Cc3cccnc3)c3c2CCC3)c(C)c1 3.57%
COc1ccc(S(=O)(=O)N2CCC(n3c(C)nc4cccnc43)CC2)cc1Cl -2.3%
CCCC(=O)N1c2ccccc2-c2nnc(SC)nc2OC1c1sccc1C (centres undefined) 1.21%
CN(C)c1ccc(CNC(=O)Cn2c(-c3cccs3)cc3cc(Cl)ccc32)cc1 4.41%
CCc1ccc(S(=O)(=O)Nc2cc3c(cc2C)n(C)c(=O)c(=O)n3C)cc1 0.314%
CCOC(=O)c1c(NC(=O)COc2ccc(Cl)cc2Cl)sc2c1CCCCC2 8.24%
Cc1ccc(C)c(N2CCN(S(=O)(=O)c3cc(C(=O)Nc4ccccc4C(F)(F)F)ccc3F)CC2)c1 7.21%
Nc1c(-c2nc(-c3ccccc3Cl)no2)nnn1-c1ccccc1C(F)(F)F -10%
CC1=C(c2ccc(C)c(C)c2)S(=O)(=O)N=C1N1CCC(C(=O)NCc2ccc(N(C)C)cc2)CC1 -6.37%
Cc1ccc(-c2nnc(SCC(=O)NCc3ccccc3)o2)cc1 -15.9%
CCN(CC)CCN(C(=O)c1ccco1)c1nc2ccc(F)cc2s1 5.78%
COc1ccc(CNC(=O)c2cnn(-c3ccccc3)c2-n2cccc2)cc1OC 1.51%
COc1ccc(N2CCN(C(=O)CSc3nc(-c4ccccc4)no3)CC2)cc1 2.87%
O=C(NCc1ccccc1)c1ccc(CS(=O)(=O)c2c(Cl)cccc2Cl)o1 -3.72%
CCOc1ccc(CNS(=O)(=O)c2ccc3c(c2)CC(C)N3C(C)=O)cc1OC (centres undefined) 1.47%
COc1ccc(OC)c(CCNC(=O)CCCn2c(=O)c3cccn3c3cccnc32)c1 -3.9%
COc1ccc(-n2nc3c(N4CCC(C(=O)NC5CCCCC5)CC4)nnc(C)c3c2C)cc1 -12.2%
COc1ccc(-c2n[nH]c3c2C(c2ccccn2)N(C)C3=O)cc1 (centres undefined) -11.5%
Cc1c(CN2CCN(C(=O)C(C)C)CC2)sc2c(N3CCOCC3)nc(-c3cnc(N)nc3)nc12 19.1%
COc1cc(CNC(=O)c2ccc(NC(=O)N3CCCCc4ccccc43)cc2)cc(OC)c1OC 3.82%
Cc1cc(C(=O)NCCc2ccc(Cl)cc2)c2c(C)nn(-c3ccccc3)c2n1 -3.35%

outcome, inactive:
CCn1cc(S(=O)(=O)c2ccc(OC)cc2)c(=O)c2cc(F)c(N3CCCCCC3)cc21
CCN1CCN(c2nc3c(S(=O)(=O)c4ccc(C)cc4)nnn3c3ccsc23)CC1
Cc1c(C(=O)NCc2cccc(F)c2)oc2c1-c1[nH]ncc1CC2
CC(C)(C)c1ccc(C(=O)Nc2ccc(NC(=O)c3ccc(Cl)c(Cl)c3)cc2)cc1
Cn1c(=O)[nH]c(=O)c2c1nc(CN1CCN(c3ccccc3)CC1)n2Cc1c(F)cccc1Cl
COc1cccc(NC(=O)Nc2ccc3snnc3c2)c1
CCOCCCn1c(SCC(=O)NCc2ccccc2)nc2c(sc3ccccc32)c1=O
CCn1cc(C(=O)NCCN(CC(C)C)CC(C)C)c(=O)c2cc(S(=O)(=O)N(C)C3CCCCC3)ccc21
COc1cc([N+](=O)[O-])ccc1NC(=O)N1CCC2(CC1)Nc1ccccc1-n1cccc12
CCOc1ccc(C(=O)Nc2cccc(NC(=O)c3ccc(Cl)cc3Cl)c2)cc1
CCc1cccc(N2C(=O)CS(=O)(=O)C23C(=O)N(Cc2ccccc2)c2ccc(C)cc23)c1 (centres undefined)
COc1ccc(-c2cc(C(F)(F)F)n3ncc(-c4ccccc4)c3n2)cc1
Cc1cc(C)c(NC(=O)C2CCN(C(=O)N3CCOc4ccccc43)CC2)c(C)c1
COc1cc2c(cc1NC(=O)COc1ccc(Br)cc1)oc1ccccc12
CCOC(=O)c1cccc(NS(=O)(=O)c2ccc(-c3coc(C)n3)cc2)c1
CC(=O)N1CCc2cc(Br)cc(S(=O)(=O)NCCc3cccc(C)c3)c21
COc1cccc(NC(=O)/C(C#N)=C/c2c(C)n(Cc3ccccc3)c3ccccc23)c1
CCOC(=O)c1c(C)[nH]c(C)c1S(=O)(=O)N1CCCC(C(=O)Nc2cccc(CC)c2)C1 (centres undefined)
CC(Oc1ccccc1)C(=O)Nc1c(C(=O)Nc2cccc(F)c2)oc2ccccc12 (centres undefined)
CCN(CC)S(=O)(=O)c1ccc(NC(=O)c2c(C)oc3ncnc(N4CCCCC4)c23)cc1
O=c1c2oc3ccccc3c2n(Cc2ccccc2F)c(=O)n1Cc1ccc2c(c1)OCO2
COc1ccccc1NC(=O)N1CCN(c2nnc(C)c3c(C)n(-c4ccccc4)nc23)CC1
Cc1ccc(NC(=O)Cn2nc(C)c3nn(-c4ccc(Cl)cc4)c(C)c3c2=O)cc1F
